{"source": "PubChem BioAssay AID760", "about": "(NMMLSC, 2007)", "note": "The campaign covered roughly 190,000 compounds. About 360 (0.19%) were called active. Inconclusive means that the source gave no clear call. Such entries were picked first, then a sample of the others.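 How the source made its calls: active means GTP binding activity at least 20 points away from 100%, either lowered or raised; inconclusive means signal likely due to the compound's own green fluorescence; inactive means the rest.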", "data": [{"target": "Ras-related protein Rab-2A (Canis lupus familiaris) (UniProt P61105)", "experiment": "Rab2 wt fluorescent GTP binding changes, either direction – biochemical, dog, bead-based flow cytometry, multiplex, primary screen (AID 760);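 further: 0% = beads with excess unlabeled GTP and 100% = no-compound control corrected for plate trend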", "conditions": "GST-Rab2 wt beads, Bodipy-GTP binding, at 10 µM", "values": [{"smiles": "CC(=O)Nc1ccc(S(=O)(=O)Nc2cccc(NC(=O)C(C)(C)C)c2)cc1", "GTP binding activity": "inconclusive: 100%"}, {"smiles": "O=C(c1ccc(F)cc1)N1CCCCC(S(=O)(=O)c2ccccc2)C1=O", "note": "(stereo not given)", "GTP binding activity": "inactive: 101%"}, {"smiles": "OCC1CCN(Cc2nc(Cc3ccccc3Cl)no2)CC1", "GTP binding activity": "inconclusive: 95%"}, {"smiles": "CS/C(=C\\[N+](=O)[O-])Nc1ccc(C)cc1", "GTP binding activity": "inactive: 100%"}, {"smiles": "Clc1cccc(Oc2cnc3ccccc3n2)c1", "GTP binding activity": "inconclusive: 104%"}, {"smiles": "O=C(CC(=O)N/N=C\\c1ccc([N+](=O)[O-])cc1)NCCc1ccccc1", "GTP binding activity": "inconclusive: 96%"}, {"smiles": "O=c1[nH]snc1N1CCOCC1", "GTP binding activity": "inactive: 97%"}, {"smiles": "COc1ccc(CN(C)c2nc(-c3cccnc3)nc3ccccc23)cc1OC", "GTP binding activity": "inconclusive: 94%"}, {"smiles": "O=C(O)c1c(-c2ccc(Cl)cc2)cn2ccccc12", "GTP binding activity": "inactive: 93%"}, {"smiles": "Oc1ccc(NC(=S)N=Nc2c(O)[nH]c3ccccc23)cc1", "GTP binding activity": "active: 75%"}, {"smiles": "COc1ccc2[nH]c3c(NCCC4=CCCCC4)ncnc3c2c1", "GTP binding activity": "inactive: 96%"}, {"smiles": "O=C(NC1CCCC1)C(c1ccccc1)N(Cc1cccnc1)C(=O)Cc1cccs1", "note": "(stereo not given)", "GTP binding activity": "inactive: 100%"}, {"smiles": "COc1ccc(N/C=C/c2nc(SC)nnc2C)cc1", "GTP binding activity": "active: 66%"}, {"smiles": "CC(NC(=O)NC12CC3CC(CC(C3)C1)C2)C1CCCO1", "note": "(stereo not given)", "GTP binding activity": "inactive: 104%"}, {"smiles": "O=C(COc1ccc(S(=O)(=O)NC2CCCCC2)cc1)NCc1cccnc1", "GTP binding activity": "inconclusive: 90%"}, {"smiles": "CCOc1cc(CO)ccc1OCC(=O)N1CCCCC1", "GTP binding activity": "inconclusive: 100%"}, {"smiles": "NC(=O)CSc1nnc(C2CC2)n1-c1ccccc1", "GTP binding activity": "inactive: 97%"}, {"smiles": "Cc1cccc(CSCCNC(=O)CSCc2ccc([N+](=O)[O-])cc2)c1", "GTP binding activity": "inconclusive: 95%"}, {"smiles": "O=c1cc(O)c2sc3nc(C(F)(F)F)c4c(c3c2[nH]1)CCCCC4", "GTP binding activity": "inconclusive: 93%"}, {"smiles": "COc1ccc(-c2nnc3c4ccccc4c(C)nn23)cc1", "GTP binding activity": "inconclusive: 98%"}, {"smiles": "COC(=O)CNC(=O)c1nn(-c2cccc(OC)c2)c(=O)c2ccccc12", "GTP binding activity": "inconclusive: 101%"}, {"smiles": "Cc1c(Cc2ccccc2)c(=O)oc2cc(OCc3ccc(C(=O)O)cc3)ccc12", "GTP binding activity": "inconclusive: 89%"}, {"smiles": "CCN(C(=O)COC(=O)c1cccnc1SC)C1CCS(=O)(=O)C1", "note": "(stereo not given)", "GTP binding activity": "inconclusive: 104%"}, {"smiles": "C/C(=N\\NC(=O)CSc1nc2nc(C)cc(C)n2n1)c1ccccc1", "GTP binding activity": "inconclusive: 88%"}, {"smiles": "S=C(NCC1COc2ccccc2O1)Nc1ccc(Br)cc1", "note": "(stereo not given)", "GTP binding activity": "inconclusive: 95%"}, {"smiles": "COc1cc(/C=N/NC(=O)c2nc(-c3ccccc3)n(-c3ccccc3)n2)ccc1O", "GTP binding activity": "inconclusive: 96%"}, {"smiles": "O=C(O)c1cc([N+](=O)[O-])ccc1NCc1ccccc1", "GTP binding activity": "active: 153% [activator]"}, {"smiles": "Cc1ccc(C2=NN(CCC(=O)NCc3ccc4c(c3)OCO4)C(=O)CC2)cc1", "GTP binding activity": "inconclusive: 175%"}, {"smiles": "O=[N+]([O-])c1cc(Br)c(O)c(/C=N/Nc2nc3ccccc3s2)c1", "GTP binding activity": "inconclusive: 86%"}, {"smiles": "CC(C)Cc1nnc(NC(=O)CCc2c[nH]c3ccccc23)s1", "GTP binding activity": "inconclusive: 90%"}, {"smiles": "CCN(CC)C(=O)Cn1cnc2sc(C(=O)N3CCN(Cc4ccc5c(c4)OCO5)CC3)c(C)c2c1=O", "GTP binding activity": "inactive: 104%"}, {"smiles": "COc1ccc(NC(=O)N2CCCC2C(=O)NCc2ccc(F)cc2)cc1", "note": "(stereo not given)", "GTP binding activity": "inconclusive: 102%"}, {"smiles": "C=CCNC(=O)c1ccccc1S(=O)c1ccccc1C#N", "note": "(stereo not given)", "GTP binding activity": "inconclusive: 92%"}, {"smiles": "COc1cc(CC(=O)NCc2ccco2)cc(OC)c1OC", "GTP binding activity": "inconclusive: 103%"}, {"smiles": "CCc1ccccc1NC(=O)Cn1nc(C(F)(F)F)cc1C1CC1", "GTP binding activity": "inactive: 94%"}, {"smiles": "C=CCc1cc(C=O)cc(OC)c1OCc1ccc(C(=O)O)cc1", "GTP binding activity": "inconclusive: 90%"}, {"smiles": "CSc1ccc(C(=S)N2CCN(C)CC2)cc1", "GTP binding activity": "inconclusive: 102%"}, {"smiles": "CCOc1cccc(-c2nnc3sc(COc4ccc(C)cc4)nn23)c1", "GTP binding activity": "inconclusive: 81%"}, {"smiles": "O=C1COc2ccc(C(=O)c3ccccc3C(=O)NCc3ccccc3)cc2N1", "GTP binding activity": "inactive: 100%"}, {"smiles": "COc1ccc(CSc2nnc(SCc3ccc([N+](=O)[O-])cc3)s2)cc1", "GTP binding activity": "inconclusive: 102%"}, {"smiles": "CSc1nsc(SC)c1NC(=O)OC1CCCCC1", "GTP binding activity": "active: 31%"}, {"smiles": "Cc1cc(C)cc(OCC(=O)Nc2ccc(S(=O)(=O)Nc3ccccn3)cc2)c1", "GTP binding activity": "inconclusive: 93%"}, {"smiles": "O=C(O)CCCC(=O)NCCCCc1ccccc1", "GTP binding activity": "inconclusive: 87%"}, {"smiles": "Cc1ccc(/C=C2\\SC(=S)N(Cc3ccccc3)C2=O)o1", "GTP binding activity": "inactive: 90%"}, {"smiles": "CCc1cc2cc(C)ccc2nc1SCC(=O)Nc1cc(C)on1", "GTP binding activity": "inconclusive: 101%"}, {"smiles": "CCS(=O)(=O)NC(C)C(c1cccs1)N1CCN(c2ccc(OC)cc2)CC1", "note": "(stereo not given)", "GTP binding activity": "inconclusive: 93%"}, {"smiles": "CC(C)Nc1nc(Cl)nc(NNC(=O)C(C)Oc2ccccc2)n1", "note": "(stereo not given)", "GTP binding activity": "inactive: 102%"}, {"smiles": "CCOc1cccc(CNCc2cccnc2)c1OCc1ccccc1", "GTP binding activity": "inconclusive: 96%"}, {"smiles": "Cc1ccc(-c2csc3nc4c5ccccc5c(NCCCN(C)C)nn4c(=O)c23)cc1", "GTP binding activity": "active: 77%"}, {"smiles": "COc1ccc(C(=O)Cc2ccc(OC)c(OC)c2)c(OC)c1", "GTP binding activity": "inconclusive: 100%"}, {"smiles": "CCOC(=O)C1(Cc2ccccc2C(F)(F)F)CCN(C(=O)c2cc(C)n(C)n2)CC1", "GTP binding activity": "inactive: 98%"}, {"smiles": "Cc1ccc(OCCNC(=O)c2cccc(Oc3ccc(C(F)(F)F)cc3[N+](=O)[O-])c2)cc1", "GTP binding activity": "inconclusive: 86%"}, {"smiles": "Cc1cc2c(s1)c1cnn(CC(=O)NCCc3ccccc3)c(=O)c1n2C", "GTP binding activity": "inactive: 94%"}, {"smiles": "O=C(CSc1nnc(-c2cccnc2)o1)c1cc2ccccc2oc1=O", "GTP binding activity": "inconclusive: 103%"}, {"smiles": "COc1ccc(-c2oc3c(OC)c(OC)c(OC)c(O)c3c(=O)c2OC)cc1OC", "GTP binding activity": "inconclusive: 92%"}, {"smiles": "O=C(OCc1cccc2ccccc12)c1ccc2c(=O)[nH]c(CN3CCOCC3)nc2c1", "GTP binding activity": "inconclusive: 97%"}, {"smiles": "Cc1cc(C(=O)OCn2nnc3ccccc3c2=O)c(C)n1-c1ccccc1", "GTP binding activity": "inactive: 95%"}, {"smiles": "O=C(O)CCn1ccnc1-c1ccccc1", "GTP binding activity": "inconclusive: 104%"}, {"smiles": "CC1CCC2(CC1)NC(=O)N(CC(=O)N1CCN(S(=O)(=O)c3ccccc3)CC1)C2=O", "note": "(stereo not given)", "GTP binding activity": "inactive: 97%"}, {"smiles": "CCOC(=O)c1nn(-c2ccccc2)c(=O)c(C#N)c1C", "GTP binding activity": "inconclusive: 102%"}]}]}
